# Data published in the supplement of paper PMC11417369.
# ± gives the standard deviation of the averaged measurements. This is one part of the list.
# System: PfAP2-G AP2 domain (GST-tagged)
# Assay: gcPBM binding intensity (ln(normalized median fluorescence intensity)); higher = stronger DNA binding
# How it was run: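 Probes on an Agilent 4 × 180k array were primer-extended, double-stranded and 36 bp long, taken from intergenic genomic regions, with negative controls added. GST-tagged P. falciparum DNA-binding domains from E. coli, about 25 μg on average, were applied to the array for 1 h in 1× PBS containing 1% milk, 0.2 mg/ml BSA, 0.5% salmon testes DNA and 0.03% Triton X-100. Binding intensity, obtained after Alexa488 anti-GST antibody detection and a 488 nm scan, is the highest Masliner-normalised natural-log median intensity across replicate spots of either probe orientation.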
row,Sequence,gcPBM binding intensity (ln)
1,TTCAATTATATTCTTTGTACGAATCTTCTATAAATT [XGTACX_site4346],10.9 ± 0.62
2,AAAATTATTAAATATGTACACACGTACATTTTATAA [CACACA_site8750],11.6 ± 0.88
3,ATATATATATATATATGTACATATACACATGTGTGC [XGTACX_site168],11.2 ± 0.55
4,AAATAAATAATAAATAAATAAATAAAATACCAAATA [GTGCAC_negctrl_site620],9.915 ± 0.035
5,TATAAATATGTGTATACACACCTGATAAAGGTATAT [CACACA_site7283],10.1 ± 0.014
6,CACACCCACAAAAACACACACAAAGGTGTTCTTATA [CACACA_site1293],10 ± 0.13
7,ATATAAAAAGTGTATCGTACATTTACTTATTTTATA [XGTACX_site6249],10.9 ± 0.49
8,ATAAAAAAAGGACACACACACATATATATATATATA [CACACA_site5662],11.4 ± 0.95
9,ATTGAAAATTGTTGCACACATAATAATTAAATATAT [CACACA_site1857],10.1 ± 0.14
10,TGTAGTCTGGAGAAACGTACATAGTATCTGGTAACC [XGTACX_site4939],11.3 ± 0.93
11,TATTTATTTTTTTGCACACATATTTTACATTTTAAT [CACACA_site3181],10.2 ± 0.11
12,ATAACATTCATATTCACACAAAAATATACTACATAG [CACACA_site4529],9.965 ± 0.021
13,TATATATATATATATACACACATATATATATTTATA [CACACA_site627],10 ± 0.8
14,TATATTTCTTATTTCTTATTTTGTCATCACCTTTTT [CACACA_negctrl_site1115],9.82 ± 0.11
15,TTACATAATATATGTACACACGCAAATACTTATAAT [CACACA_site7995],11.5 ± 0.95
16,TATAAATATGTTCTTACACACACGAATATAAATATG [CACACA_site7537],10.19 ± 0.071
17,AAAAAAATCACATAAAATACTTTATTTTATATTATA [GTGCAC_negctrl_site372],9.78 ± 0.18
18,TACTTTTTTTTTTTTTTTTTTTTTTTTTCCCTTTTT [CACACA_negctrl_site761],9.84 ± 0.28
19,TTTTATTTATATATAGTGCATATTATTATAAAACAA,9.98 ± 0.38
20,GTTTATTTATTATAATGTACATTAGTCTGAGGAGTT [XGTACX_site4035],11 ± 0.66
21,ATATATATATATATATGTACATATGTTAATCTGCAT [XGTACX_site1068],11.2 ± 0.7
22,CTTTTTTTCCATTAAGCATGCACATTCATATTTACT [TGCATGCA_site170],10.3 ± 0.17
23,ATAGAAGAAATATGCACACATACATTGAAATGTTTT [CACACA_site321],9.99 ± 0.042

row,Sequence,gcPBM binding intensity (ln)
1,CACATACACATACAAACACACATTAGATATAAATAT [CACACA_site6854],9.99 ± 0.18
2,AAAAAAAATTAATAGGGTACATGAAAAGTGGAATAT [XGTACX_site618],11.2 ± 0.61
3,TGAACACGCACAAATACACACAAAAAAAATAAATAA [CACACA_site6257],10.2 ± 0.4
4,CCATTAAGACACATTGCACACGTGCACCCATAGAAA [CACACA_site4388],10.7 ± 0.6
5,AAAAAAAAATTAAAAACACACATATAAATAAATATA [CACACA_site6845],9.62 ± 0.2
6,AACAAAATAGGGAACACACACATGTCAATATATAAA [CACACA_site2596],10.4 ± 0.3
7,TTTTTTTTTAAATAATGTACTTTTCATTATTTAGAT [XGTACX_site1706],11.2 ± 0.73
8,TTTTTATTTATTAATACACACACACCCACCCACAAA [CACACA_site7965],10.9 ± 0.67
9,AAAGAAAAAAATAATTGTACATTTATATTTAATTTA [XGTACX_site8003],10.8 ± 0.54
10,AGATATAATAAATATACACACATATATATATATATA [CACACA_site962],10.2 ± 0.53
11,TTTTTTTTTTTTTTTTGTACGTAATATATGATTAAT [XGTACX_site6876],11.4 ± 1.1
12,CATTTTATCAAAAGTGGTACAACCCTTTCAAAAAAT [XGTACX_site341],11.4 ± 1.1
13,AAATTACTTTCACAGTGTACTTGGAAAAAAAAAAGA [XGTACX_site1046],11.3 ± 0.8
14,TTTAACATAAATTAAACACACAATATAATACATTAA [CACACA_site1237],9.83 ± 0.085
15,TAATTTTATATATGCACACAAAATATGTTCATATAA [CACACA_site4076],10.3 ± 0.28
16,TGAAAAATGTTGATGTGTACTTATATAGTGTGTTAA [XGTACX_site2100],11.3 ± 0.82
17,TTTTTTTTTTTTGTCACACATATATTTGTATTTATA [CACACA_site5234],10 ± 0.41
18,TGATATTTATAATAAATATTATAATAAAATCAAACA [XGTACX_negctrl_site219],9.725 ± 0.021
19,ATATATATTTAAATGTGTACTCATTTATTTTATGTC [XGTACX_site4984],11.5 ± 0.9
20,ATAGTATAACAGCAATGTACACATATTTGTGTATAT [XGTACX_site7899],11.3 ± 0.67
21,TATATATATAAACACACACACACATATATATATATT [CACACA_site8814],9.94 ± 0.16
22,TTTTTTTTTTTTTGCACACACATATATAGATATATA [CACACA_site7784],10 ± 0.4
23,ATAAAATTGTTTAAATGTACATATGAACAGTCAGTA [XGTACX_site5140],11.4 ± 0.69

row,Sequence,gcPBM binding intensity (ln)
1,ATATATGTAATAAATAGTACACACACACATATATAT [XGTACX_site2817],11.5 ± 1
2,ATATATATTTTTATTTGTACATAATTTTTTTTGTGA [XGTACX_site6378],11.1 ± 0.67
3,ATATATTAATTTAATTGTACGAATAAAAAAAAAAAA [XGTACX_site223],10.9 ± 0.83
4,TATATACATTTATGTACACACACATATATGTATATT [CACACA_site8971],11.4 ± 0.99
5,AAAGCACCCAAGAATACACACAAATATTATAAAAAA [CACACA_site111],10.2 ± 0.33
6,ACGTATTAGATAAATACACACACAAGCATATATTTT [CACACA_site9135],9.97 ± 0.16
7,TAATGTATTATATTTAGTACATATAAAAATAATTTT [XGTACX_site6886],11.2 ± 0.72
8,ATATATATAATATAATGTACATATATTTTATTTTTA [XGTACX_site3819],11.1 ± 0.7
9,TTTCATCTATATGAAACACACAAAGGAAAAAAAATT [CACACA_site7869],10.3 ± 0.19
10,ATATATATTGTACTAGTGCATATATATACATATATT,11.2 ± 0.83
11,ATAAATAAAAACACAAAACAAAACAAAACAAAACAA [CACACA_negctrl_site1257],9.745 ± 0.007
12,TAATAAATGGCTAGTTGTACAGAAATATAAATATTA [XGTACX_site4579],11.1 ± 0.73
13,AGATTCAAAAATAAAACATGCAAAAATAAAACGTGC [TGCATGCA_site501],9.95 ± 0.12
14,TTTTTTTTGTGTATTTGTACATAATATATATATATA [XGTACX_site7092],10.9 ± 0.49
15,ATATTATATTTCTTTTGTACATATTATATAATATAT [XGTACX_site7198],11.1 ± 0.54
16,TAATACCATTGTCATGCATGCACATTATTACTCTAA [TGCATGCA_site160],9.95 ± 0.15
17,TCGTAATTTTTTTTTATATATTAGGAATTTATAAAA [XGTACX_negctrl_site409],9.62 ± 0.11
18,ATTAATATAAAAAGGTAAATGGATGTAATATATATA [XGTACX_negctrl_site2],9.94 ± 0.16
19,AAAAGGTATGTTATACATAGATATGCACATATATGT [TGCATGCA_negctrl_site96],10.4 ± 0.19
20,GTAGGATTTTCTTTTGTGCGCAATATAAAAAGAAAA [GTGCAC_site9514],10.6 ± 0.49
21,AAAATTGTTATTTTATGTACTTATATTTATTTATTT [XGTACX_site3478],11.3 ± 0.79
22,CTTCTGTAATTATCACGTACATATAATAATTAAAAT [XGTACX_site8973],11.3 ± 0.93
23,TTTTTATCTTTGCTGTGTACATAAATAAAAATAACT [XGTACX_site7625],11.4 ± 0.88

row,Sequence,gcPBM binding intensity (ln)
1,ATAAATGACAGACACACACACAAAAAAAAAAAACAA [CACACA_site2626],10.1 ± 0.42
2,ACCCTATCTGTAACTACACACCGCATATTGTTTACT [CACACA_site5661],10.4 ± 0.22
3,AAATATTTATATGTTACACACTGTTTATAACTTTCT [CACACA_site6752],9.95 ± 0.071
4,ATAGTTTAATTTATATGTACATATAATATTGATTTG [XGTACX_site7520],11.2 ± 0.71
5,TATATTTTATATTGGTGTACAATTTTTTTTTTTTTT [XGTACX_site4291],11.4 ± 0.91
6,TTTTTTTTGATAAGTTGTACAATGATATATATCCCT [XGTACX_site3560],11.2 ± 0.79
7,CCTTTTTTTTTTTTATGTACTAAAATAAAATTAGAA [XGTACX_site5956],11.3 ± 0.94
8,ACAATTTATATTATATGTACTTAAAAAGTTCGTAAA [XGTACX_site6421],11.2 ± 0.79
9,TTTTATACATAAATATGTACGTATATATAATGAATT [XGTACX_site1337],11.3 ± 0.73
10,GCCTCATCGTAGCAGTGTACGTTTTTTTTTTTTTTT [XGTACX_site8648],11.5 ± 0.79
11,ATAACAACCCAATGTTGTACATTTAAATATAACGTA [XGTACX_site7114],11 ± 0.51
12,TTCTAAAATTATATAGTGCAATTATATTAATTTTTC,9.785 ± 0.078
13,TATATATATTTATGTACACACACACCGATAAATAAA [CACACA_site4404],11.6 ± 0.88
14,TATAACATATGACACACACACATACATACACAAAAA [CACACA_site6935],10.4 ± 0.43
15,AACAAAATAAAAAAAACATGCAAGAATTCTTATATG [TGCATGCA_site714],9.66 ± 0.18
16,ATTTGTATTGTATATGCACACATAGAACACTTTTTT [CACACA_site9373],10.2 ± 0.16
17,TTACGCGCTTATTACACACACATACAAATAAGGATT [CACACA_site3486],10.3 ± 0.25
18,AAAAATAAAAAAAATACATGCAATGAAACATTTATT [TGCATGCA_site263],9.63 ± 0.18
19,TTATACAGATATTTAACACACATTTTATAAAGTGCC [CACACA_site4851],9.87 ± 0.11
20,TTGTGTTTGAAAAAATGTACATGTGTCTTACAACAA [XGTACX_site8371],11.3 ± 0.82
